# The supplement of paper PMC4604168 (melanoma cell lines)
# Some of the results follow. Single values are uncertain, as repeats are few or missing.
# How the values were obtained:
# Test in all cases: cell count relative to DMSO control; melanoma cells; higher = more viable cells
# Conditions in all cases: library dose: standard library concentration; 72 h
# SkMel28 = system: SkMel28
# SkMel2 = system: SkMel2
# SkMel30 = system: SkMel30
# SkMel5 = system: SkMel5
# UACC257 = system: UACC257
# UACC62 = system: UACC62
# WM115 = system: WM115
# WM1716 = system: WM1716
# WM1745 = system: WM1745
# WM3526 = system: WM3526
# 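Note: cells treated in 1,536-well plates, then fixed and DAPI-stained, with nuclei counted from automated high-throughput microscope images.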
SMILES,cell count (SkMel28) [%],cell count (SkMel2) [%],cell count (SkMel30) [%],cell count (SkMel5) [%],cell count (UACC257) [%],cell count (UACC62) [%],cell count (WM115) [%],cell count (WM1716) [%],cell count (WM1745) [%],cell count (WM3526) [%]
"C[C@]1(O)C[C@@H](c2nc(-c3ccc4ccc(-c5ccccc5)nc4c3)c3c(N)nccn32)C1 + Nc1nc(F)nc2c1ncn2[C@@H]1O[C@H](CO)[C@@H](O)[C@@H]1O [fludarabine] (first compound 2 µM, partner dose 1 µM)",1.34,1.15,14,29,37.4,58.9,70.6,85.6,59.5,19.1
"C[C@]1(O)C[C@@H](c2nc(-c3ccc4ccc(-c5ccccc5)nc4c3)c3c(N)nccn32)C1 + O=C(CCCCCCC(=O)Nc1ccccc1)NO [vorinostat] (first compound 2 µM, partner dose 0.4 µM)",56.7,67.4,85.3,53.4,66.2,51.5,86.1,99.9,51.3,60.5
"COc1cc([C@@H]2c3cc4c(cc3[C@@H](O[C@@H]3O[C@@H]5CO[C@@H](C)O[C@H]5[C@H](O)[C@H]3O)[C@H]3COC(=O)[C@H]23)OCO4)cc(OC)c1O [etoposide] + Cc1cc(Nc2cc(N3CCN(C)CC3)nc(/C=C/c3ccccc3)n2)n[nH]1 [ENMD2076] (first compound 0.1 µM, partner dose 0.2 µM)",45.4,63.2,55.6,84,98.7,72.5,58.6,64.3,93.9,66.9
"Cn1cnc2c(F)c(Nc3ccc(Br)cc3Cl)c(C(=O)NOCCO)cc21 [selumetinib] + Nc1cccc2c1CN(C1CCC(=O)NC1=O)C2=O [lenalidomide] (first compound 0.075 µM, partner dose 5 µM)",61.7,52.5,64,88.6,89.3,66.5,85.6,80.6,79.9,57.3
"C[C@]1(O)C[C@@H](c2nc(-c3ccc4ccc(-c5ccccc5)nc4c3)c3c(N)nccn32)C1 + Cc1ccc(NC(=O)c2cccc(N(C)C)c2)cc1NC(=O)c1ccc(O)cc1 [ZM336372] (first compound 2 µM, partner dose 10 µM)",108,100,106,112,77.1,77.8,126,127,74.1,87.2
"COc1cc([C@@H]2c3cc4c(cc3[C@@H](O[C@@H]3O[C@@H]5CO[C@@H](C)O[C@H]5[C@H](O)[C@H]3O)[C@H]3COC(=O)[C@H]23)OCO4)cc(OC)c1O [etoposide] + COc1cc(Nc2ncc(F)c(Nc3ccc4c(n3)NC(=O)C(C)(C)O4)n2)cc(OC)c1OC [Tamatinib] (first compound 0.1 µM, partner dose 2 µM)",59.6,56.6,91.3,56.2,70.1,56,74.5,66.1,33.9,68.8
"COc1cc([C@@H]2c3cc4c(cc3[C@@H](O[C@@H]3O[C@@H]5CO[C@@H](C)O[C@H]5[C@H](O)[C@H]3O)[C@H]3COC(=O)[C@H]23)OCO4)cc(OC)c1O [etoposide] + Nc1ncn([C@H]2C[C@H](O)[C@@H](CO)O2)c(=O)n1 [decitabine] (first compound 0.1 µM, partner dose 0.5 µM)",72.4,71.2,106,81.3,86.3,61.2,73.2,68.3,75.5,98.6
"C[C@]1(O)C[C@@H](c2nc(-c3ccc4ccc(-c5ccccc5)nc4c3)c3c(N)nccn32)C1 + COc1ccc(Cl)c(Nc2nc3ccccc3nc2NS(=O)(=O)c2cccc(NC(=O)C(C)(C)N)c2)c1 [XL147] (first compound 2 µM, partner dose 4 µM)",87.9,104,127,66.5,72,68.4,104,96.8,65.6,87
"COc1cc([C@@H]2c3cc4c(cc3[C@@H](O[C@@H]3O[C@@H]5CO[C@@H](C)O[C@H]5[C@H](O)[C@H]3O)[C@H]3COC(=O)[C@H]23)OCO4)cc(OC)c1O [etoposide] + O=C(O)c1ccc(-c2c[nH]c3ncc(-c4ccccc4)cc23)cc1C1CCCC1 [GSK650394] (first compound 0.1 µM, partner dose 0.8 µM)",64.7,63.1,85.1,77.9,85.2,84.7,83.5,73,92.8,104
"Cn1cnc2c(F)c(Nc3ccc(Br)cc3Cl)c(C(=O)NOCCO)cc21 [selumetinib] + Cc1ccc(NC(=O)c2cccc(N(C)C)c2)cc1NC(=O)c1ccc(O)cc1 [ZM336372] (first compound 0.075 µM, partner dose 10 µM)",51,21.8,69.7,79.5,92.1,70.5,52.7,91.2,95.6,58.6
"COc1cc([C@@H]2c3cc4c(cc3[C@@H](O[C@@H]3O[C@@H]5CO[C@@H](C)O[C@H]5[C@H](O)[C@H]3O)[C@H]3COC(=O)[C@H]23)OCO4)cc(OC)c1O [etoposide] + Cc1cc(N2CCOCC2)cc2[nH]c(-c3c(NC[C@@H](O)c4cccc(Cl)c4)cc[nH]c3=O)nc12 [BMS536924] (first compound 0.1 µM, partner dose 1 µM)",79.2,74.5,98.8,78.8,89.8,86.9,71.1,74.6,54.8,83.7
"CCN(CC)CCNC(=O)c1c(C)[nH]c(/C=C2\C(=O)Nc3ccc(F)cc32)c1C [sunitinib] + Cc1nc(Nc2ncc(C(=O)Nc3c(C)cccc3Cl)s2)cc(N2CCN(CCO)CC2)n1 [dasatanib] (first compound 2 µM, partner dose 0.02 µM)",47.9,59.9,63.4,57.5,73.2,58.6,62.4,78.5,22.8,47.1
"COc1cc([C@@H]2c3cc4c(cc3[C@@H](O[C@@H]3O[C@@H]5CO[C@@H](C)O[C@H]5[C@H](O)[C@H]3O)[C@H]3COC(=O)[C@H]23)OCO4)cc(OC)c1O [etoposide] + CCCS(=O)(=O)Nc1ccc(F)c(C(=O)c2c[nH]c3ncc(Cl)cc23)c1F [PLX4720] (first compound 0.1 µM, partner dose 0.4 µM)",55,77.2,75,67,87.3,52.1,67.5,67.7,75,67.3
"Cn1cnc2c(F)c(Nc3ccc(Br)cc3Cl)c(C(=O)NOCCO)cc21 [selumetinib] + CS(=O)(=O)c1ccc(C(=O)Nc2ccc(Cl)c(-c3ccccn3)c2)c(Cl)c1 [vismodegib] (first compound 0.075 µM, partner dose 5 µM)",46,54.2,53.9,64.6,84.9,47.5,90.3,75.3,69.6,74.3
"CCN(CC)CCNC(=O)c1c(C)[nH]c(/C=C2\C(=O)Nc3ccc(F)cc32)c1C [sunitinib] + C[C@@H](Oc1cc(-c2cnn(C3CCNCC3)c2)cnc1N)c1c(Cl)ccc(F)c1Cl [Crizotinib] (first compound 2 µM, partner dose 1 µM)",46.6,58.9,43.8,42.1,81.5,46.6,40.7,65.9,38.3,45.6
"CCN(CC)CCNC(=O)c1c(C)[nH]c(/C=C2\C(=O)Nc3ccc(F)cc32)c1C [sunitinib] + CN(NC(=O)CC(=O)NN(C)C(=S)c1ccccc1)C(=S)c1ccccc1 [STA4783] (first compound 2 µM, partner dose 0.03 µM)",35.6,69.8,54.8,23.4,96.8,38.7,21.9,70.4,27.3,55.1
"CCN(CC)CCNC(=O)c1c(C)[nH]c(/C=C2\C(=O)Nc3ccc(F)cc32)c1C [sunitinib] + C[C@@H]1CCN(C(=O)CC#N)C[C@@H]1N(C)c1ncnc2[nH]ccc12 [CP690550] (first compound 2 µM, partner dose 5 µM)",63.9,63.5,68.6,52.5,97,61.9,50.3,92.9,51.7,62.2
"COc1cc([C@@H]2c3cc4c(cc3[C@@H](O[C@@H]3O[C@@H]5CO[C@@H](C)O[C@H]5[C@H](O)[C@H]3O)[C@H]3COC(=O)[C@H]23)OCO4)cc(OC)c1O [etoposide] + O=C(Nc1cccc(Cl)c1)Nc1ncc(CCNc2ncnc3ccsc23)s1 [SNS314] (first compound 0.1 µM, partner dose 0.004 µM)",45.9,64.1,68.8,79.8,76,65.4,30.8,39.6,82.6,74.3
"Cn1cnc2c(F)c(Nc3ccc(Br)cc3Cl)c(C(=O)NOCCO)cc21 [selumetinib] + Cc1nc(Nc2ncc(C(=O)Nc3c(C)cccc3Cl)s2)cc(N2CCN(CCO)CC2)n1 [dasatanib] (first compound 0.075 µM, partner dose 0.02 µM)",55.5,55.7,59.4,77.2,96.7,70.3,48.8,51.8,55.3,61.2
"CCN(CC)CCNC(=O)c1c(C)[nH]c(/C=C2\C(=O)Nc3ccc(F)cc32)c1C [sunitinib] + C=CCn1c(=O)c2cnc(Nc3ccc(N4CCN(C)CC4)cc3)nc2n1-c1cccc(C(C)(C)O)n1 [MK1775] (first compound 2 µM, partner dose 0.1 µM)",39.9,66.1,61.2,49.4,82.4,44,75.4,92,50,41.9
